# From the supplement of paper PMC11417369
# ± gives the standard deviation of the averaged measurements. The list shows a part of the results.
# System: PfAP2-I AP2 domain 3 (GST-tagged)
# Assay: gcPBM binding intensity (ln(normalized median fluorescence intensity)); higher = stronger DNA binding
# How it was run: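 Alexa488 anti-GST antibody, scanned at 488 nm, detected GST-tagged P. falciparum DNA-binding domains that had been expressed in E. coli and incubated for 1 h on an Agilent 4 × 180k array. The array carried primer-extended double-stranded 36-bp intergenic genomic probes and negative controls. Binding intensity is the highest Masliner-normalised natural-log median intensity across replicate spots of either orientation of each probe.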
row,Sequence,gcPBM binding intensity (ln)
1,ATATCTTATGTTATCACACACACACGCACAAAACAG [CACACA_site6800],9.08 ± 0.028
2,ATTTGTTTACCTAAAAGTACAAATTTTTTATGTATA [XGTACX_site7689],7.58 ± 0.64
3,ATTTTTTTTATTTTTTATATAATTTTTTTATATTAT [CACACA_negctrl_site1521],7.55 ± 0.51
4,TGTATTTATAAACATGCACACGTGGTTGTATTTATA [CACACA_site5762],9.85 ± 0.59
5,TATCCCTTAGAATACACACCCATATGAGTGTGAACT [CACACA_site7398],7.62 ± 0.39
6,TGTTTTGTTTTTTGGGGTACATGTTTTGTATTATAT [XGTACX_site7997],8.79 ± 0.47
7,AATTTACAAATATAATGTACATAATTATATATATAT [XGTACX_site278],8.87 ± 0.26
8,ATATATATATATTACACACACACAAAAAAAATAAAG [CACACA_site118],9.07 ± 0.18
9,TTTGGTTATATTTAAAAAAGACTAATGAAAATTAAA [XGTACX_negctrl_site526],7.39 ± 0.43
10,AAAAAAAAAAAAAATACACACATAAAATAAATAACA [CACACA_site439],8.03 ± 0.32
11,CATACCATACATAAAACACACAAAATTTACAGAATA [CACACA_site7451],7.88 ± 0.23
12,AATAGTAAAAATCACTGTACGTTTATTTTTAAAATG [XGTACX_site1035],7.79 ± 0.28
13,CCATATACAACCATACGTACATATATATATATATAT [XGTACX_site8193],9.33 ± 0.64
14,TATAATATTATACATAGTACACATCACACATCGCAA [XGTACX_site4650],8.05 ± 0.39
15,ATATTATTTATAGGGTGTACCTTATTATTATAAGAA [XGTACX_site7148],7.73 ± 0.28
16,TAGAAAAACATTACGTGTACCAAACATCCTAGCAAC [XGTACX_site4888],7.95 ± 0.67
17,TATATACTTTTATGTACACACCTATAATATGGGTGA [CACACA_site5044],7.68 ± 0.16
18,TTATACATAAATTTTGTACACACAAAAAAAAAAAAG [CACACA_site8374],7.95 ± 0.33
19,TTTCAAAAGTAATACTGTACTTATTTTTATGATTTA [XGTACX_site4184],7.8 ± 0.18

row,Sequence,gcPBM binding intensity (ln)
1,ACATATATATATATATATATATATATATTACATTTA [CACACA_negctrl_site627],8.54 ± 0.28
2,GAATTTTTTTAATGTTGTACTTTTTTTTTTTTTTCT [XGTACX_site648],7.83 ± 0.26
3,ACATATTTTATTTTTTGTACACATATATTATTTTTT [XGTACX_site6528],8.28 ± 0.42
4,TTTTTGTTAAACAGGGTGCTAATCTGAATTAATATT [GTGCAC_site9908],9.44 ± 0.14
5,CTTTATAATATTTGTTGTACACAAATATAACATATT [XGTACX_site709],8.05 ± 0.45
6,AATAATACAAAAGTTCAACAAAAAAAAAAAAAAAAT [CACACA_negctrl_site952],7.63 ± 0.4
7,AATATATTTATAAGCACACACTAATAAACACAGACA [CACACA_site4377],8.38 ± 0.26
8,GTACATAATTATTATGCACACATATTTTTATGTATT [CACACA_site8132],9.96 ± 0.36
9,AAATATATATATATATATATATATGTGTGTGTATAT [GTGCAC_negctrl_site1],8.26 ± 0.33
10,TGTATAATATATATATGTACTTATGTATAATATTAT [XGTACX_site4328],7.74 ± 0.49
11,TGCATAAAAGTAAAAACATGCATGCCGTGGTATCTT [TGCATGCA_site664],7.75 ± 0.92
12,AAGATATCTAAGGAAATTAAACTACCAAAATATATA [TGCATGCA_negctrl_site338],7.39 ± 0.59
13,GACATATAAATATACACACATACGTAAGTATATTAA [CACACA_site1790],7.63 ± 0.43
14,TTTTTATGGATATTTATATTATATTATGATTAAAAA [TGCATGCA_negctrl_site204],7.43 ± 0.46
15,AAATGAAAGAATTAAAGTACATTTATATAATTTTAA [XGTACX_site3540],7.47 ± 0.4
16,AAGAGAAAAACATACACACACAACAAAATATGTATA [CACACA_site2719],7.75 ± 0.38
17,TAATAATAATTATATACACACATGTATATTATATTT [CACACA_site1501],7.66 ± 0.32
18,ATTTAAATATATTATTGTACATATACCTAATAAGAA [XGTACX_site6655],7.82 ± 0.45
19,ACTCCTATATAAATGAACCATATTCATAATATATAT [CACACA_negctrl_site1636],7.64 ± 0.59

row,Sequence,gcPBM binding intensity (ln)
1,AAAATTAGGTATATATGTACATATATAAATATATAT [XGTACX_site3555],7.88 ± 0.42
2,TCCTTATATGGGCACACACACACAATAAAATGAAAA [CACACA_site1030],8.49 ± 0.11
3,GTTTATATTAAACAAACACACACATATATATATATA [CACACA_site8749],9.36 ± 0.39
4,TATGCTACAAGGAGAACACACAATTGCCACTTTTGG [CACACA_site2166],8 ± 0.72
5,AACCATTATTTCTCTACACACATTTATGTCATTTAC [CACACA_site1499],8.1 ± 0.84
6,TACATGCATTTCTCATGTACATAATTTTCCCATATT [XGTACX_site5158],8.16 ± 0.28
7,ATAAATTAAAGACACACACACATCTGGATACCCCTA [CACACA_site7546],8.04 ± 0.5
8,TTATATTATATATATAGTACACATGTAATATTTCAA [XGTACX_site1791],7.76 ± 0.35
9,ATCTATATAATATATACACACAAATATACAAAAAAA [CACACA_site1013],8.01 ± 0.42
10,TAAATATGCTCACAGATGCACTAACACATTTTTATA [GTGCAC_site9997],8.92 ± 0.4
11,TTTTATACATAAATGTGTACGTATATATAATGAATT [XGTACX_site2762],8.17 ± 0.17
12,TATTGTAGAGGCAAAAGTACACATTTAATAATTTCC [XGTACX_site1151],7.79 ± 0.45
13,ATTTAAAAATAAAGAACACACATATGTAAAATATAT [CACACA_site3754],7.83 ± 0.68
14,CAAAATATAACATCATCACACACATATACTTTATAT [CACACA_site8292],7.64 ± 0.49
15,TTATTAATATATAAATGTACATATACAATACATAAA [XGTACX_site5571],7.62 ± 0.3
16,TATTTAAGAGTATGAACACACATCATACACATATAA [CACACA_site3617],7.56 ± 0.44
17,TATGTTTGTGTATATATTTATTTTTATGTAATTATA [GTGCAC_negctrl_site219],7.75 ± 0.45
18,AATAGAACTATTACACGTACAGAACATGAATTAGTT [XGTACX_site7518],7.72 ± 0.62
